From PubChem BioAssay AID1345083 (National Center for Advancing Translational Sciences (NCATS), 2018)
The whole screen tested about 94,000 compounds, of which about 6,200 (6.6%) were called active. This list was built around the results that the source calls inconclusive (neither active nor inactive); the mix of calls is not that of the screen. Calls follow the shape of the dose curve; as a rule, active = well fitted inhibition curve with a large enough effect; inconclusive = small, poorly fitted or top-dose-only effect; inactive = flat fitted curve, though single readings scatter. A potency beside an inconclusive call is a rough fit, not a confirmed value.

assay: Cytotoxic Profiling in HEK 293 Cell Line of Diverse Libraries Using Quantitative High-Throughput Screening; conditions: HEK 293 viability, ATP luminescence (CellTiter-Glo), 48-72 h; activity change, negative = cytotoxicity: at 115 µM (top of the series) unless noted; series mostly up to 115 µM; also: nearly all actives have a fitted effect of over 60% in size
How it was run: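 ATP-coupled CellTiter-Glo luminescence served as viability read-out, recorded 10 min after reagent addition at room temperature. HEK 293 cells, 250 cells/well, had been incubated with pintool-transferred compound for 48 or 72 hr at 37 degree Celsius.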
% is scaled to controls: 0 for no effect and ±100 for the full control effect; potency is read from the fitted curve at half-maximal effect; tags tell the direction and shape of the fitted curve.

Row | SMILES | activity change, negative = cytotoxicity | Potency | outcome
1 | c1cnc(N2CCC3(CCCN3Cc3ccc(-c4ccn[nH]4)o3)CC2)nc1 | inactive: -7.92% | – | –
2 | OC1(c2nc(Nc3cccc(C(F)(F)F)c3)n[nH]2)CCOCC1 | inactive: -24.2% [at 172 µM] | – | –
3 | c1ccc(N2CCN(C3CCCN(Cc4cn[nH]c4C4CCCCC4)C3)CC2)cc1 (stereo unspecified) | – | active: 89.1 µM | –
4 | COc1ccc(N2CC(c3noc(-c4ccc(Cl)cc4OC)n3)CC2=O)cc1 (stereo unspecified) | – | inconclusive: 56.2 µM [inhibitor, partial curve, poor fit] | –
5 | CCCN(CC1CCOC1)C(=O)Nc1ccc(Br)c(C)c1 (stereo unspecified) | – | inconclusive: 89.1 µM [inhibitor, single point] | –
6 | CCC(=O)N1CCc2sc(C(=O)NCc3ccc(Cl)cc3)cc2C1 | – | inconclusive: 44.7 µM [inhibitor, partial curve, poor fit] | –
7 | CC1(C)[C@H]2CC[C@@H](CNC(=O)c3ccc4ccccc4n3)[C@@H]1C2 | – | inconclusive: 79.4 µM [inhibitor, partial curve, poor fit] | –
8 | Cc1nc(CN2C[C@H](C(=O)Nc3cccc(F)c3)C[C@@H]2c2ccc(F)cc2)cs1 | – | active: 39.8 µM | –
9 | Cn1c(C(=O)Nc2ccc(N3CCOCC3)cc2)cc2c1CCN(Cc1ccccc1)C2 | inactive: -20.1% | – | –
10 | CCN1C(=O)C2(CCN(S(=O)(=O)c3cc(Cl)ccc3OC)CC2)c2ccccc21 | – | inconclusive: 50.1 µM [inhibitor, partial curve, poor fit] | –
11 | O=C(C[C@@H]1CCNC[C@@H]1Cc1cc(-c2ccccc2)on1)NC1CCCCC1 | – | active: 100 µM | –
12 | COc1ccc(C(=O)N[C@@H]2CCC[C@@H]2C(=O)NCCc2cccs2)cc1 | – | inconclusive: 89.1 µM [inhibitor, partial curve, poor fit] | –
13 | Cc1ccccc1S(=O)(=O)N1CCC(CCC(=O)N(C)Cc2cccnc2)CC1 | – | inconclusive: 50.1 µM [inhibitor, partial curve, poor fit] | –
14 | Cc1noc(-c2ccc(OC3CN(C(=O)c4cc(F)ccc4F)C3)cc2)n1 | – | inconclusive: 70.8 µM [inhibitor, partial curve, poor fit] | –
15 | N#Cc1ccc(CN2CCCC3(COc4ccccc4C(=O)N3)C2)cc1 (stereo unspecified) | – | inconclusive: 39.8 µM [inhibitor, partial curve, poor fit] | –
16 | COc1ccc2c(c1)CN(Cc1ccccc1)C(=O)CCN2CC(O)C(F)(F)F (stereo unspecified) | – | inconclusive: 79.4 µM [inhibitor, partial curve, poor fit] | –
17 | CC1(c2ccccc2)N(Cc2ncccn2)C(=O)OC12CCN(Cc1ccc(F)cc1)CC2 (stereo unspecified) | – | inconclusive: 44.7 µM [inhibitor, partial curve, poor fit] | –
18 | COc1cccc(CN2Cc3nc(-c4cnn(C)c4)ccc3OCC2=O)c1 | inactive: -15.8% [at 172 µM] | – | –
19 | CC(C)c1cc(C(=O)N2CCN(c3ncccc3C#N)CC2)n(C)n1 | inactive: -17.6% | – | –
20 | Cc1noc([C@@H]2CN(C(=O)c3occc3C)C[C@H]2CO)n1 | inactive: 3.88% | – | –
21 | CCS(=O)(=O)Nc1ccc(C2(C(=O)Nc3cccc(F)c3C)CCCCC2)cc1 | – | active: 39.8 µM | –
22 | COc1ccc(-c2noc([C@@H]3Cc4nc[nH]c4CN3C(=O)CC(C)(C)CC(=O)O)n2)cc1 | inactive: 0.365% | – | –
23 | Cc1ccsc1CN1CCCC12Cc1ccccc1CNC2=O (stereo unspecified) | inactive: -12.6% | – | –

Row | SMILES | activity change, negative = cytotoxicity | Potency | outcome
24 | CC(C)N1C(=O)C(CC(=O)NCC2CCN(Cc3ccccc3F)CC2)=C2CCCCC21 (stereo unspecified) | inactive: -21.3% | – | –
25 | CC(O)CNC(=O)C1CCN(c2nc(-c3ccccc3)nc3c2CCC3)CC1 (stereo unspecified) | – | – | inactive
26 | Cc1noc([C@@H]2CN(C(=O)Cc3ccsc3)C[C@H]2C(N)=O)n1 | inactive: -3.18% | – | –
27 | O=C(NCCc1ccccc1F)c1ccc2oc(-c3ccnc(Cl)c3)nc2c1 | inactive: -5.89% | – | –
28 | Cc1nc2ccc(-c3nc(C4CCOC4)no3)cc2s1 (stereo unspecified) | – | inconclusive: 50.1 µM [inhibitor, partial curve, poor fit] | –
29 | CN(C)c1cccc(C(=O)N2CCCN(c3cc(-c4ccc(F)cc4)[nH]n3)CC2)c1 | – | inconclusive: 50.1 µM [inhibitor, partial curve, poor fit] | –
30 | CC(=O)N(C1CCOCC1)C1CCN(C(=O)c2ccc(C)cc2)CC1 | inactive: 0.0044% | – | –
31 | COc1cccc(CCC2CCCN(C(=O)C3CCCC3)C2)c1 (stereo unspecified) | – | inconclusive: 39.8 µM [inhibitor, partial curve] | –
32 | CN(CCc1noc(C2CN(S(=O)(=O)c3cccnc3)C2)n1)C(=O)C1CC1 | inactive: -5.93% | – | –
33 | COc1ccc(CN(Cc2ccc(OC)cc2)[C@@H]2CO[C@H](CNC(=O)CC(C)(C)C)[C@H]2O)cc1 | – | active: 70.8 µM | –
34 | O=c1cc(-c2ccccc2Cl)nc(-c2ccc(CN3CCC[C@@H](O)C3)cc2)[nH]1 | – | inconclusive: 35.5 µM [inhibitor, full curve, poor fit] | –
35 | Cc1cccc(OCCc2noc(C3CCCN3C(=O)c3cccc(C)c3)n2)c1 (stereo unspecified) | – | inconclusive: 50.1 µM [inhibitor, partial curve, poor fit] | –
36 | O=C(c1cnccn1)N1CCCC(Cc2nc(C3CCOCC3)no2)C1 (stereo unspecified) | inactive: 1.52% | – | –
37 | COCCNC(=O)C1CCCN(c2nccc(Nc3ccccc3OC)n2)C1 (stereo unspecified) | – | inconclusive: 79.4 µM [inhibitor, single point] | –
38 | CN1CCN(C(=O)c2ccc(N3CC4CC(C3)[C@H]3CCCC(=O)N3C4)nc2)CC1 (stereo partly specified) | inactive: 5.33% | – | –
39 | C=CCOc1c(OC)ccc2c1CN(Cc1ccco1)C(=O)CCN2CC(O)Cc1ccccc1 (stereo unspecified) | – | inconclusive: 50.1 µM [inhibitor, partial curve, poor fit] | –
40 | COCCNC(=O)[C@H]1C[C@H](Oc2ccccc2)CN1C(=O)NCc1ccc(C)cc1 | – | – | inactive
41 | Cc1ccc(C(=O)N[C@@H]2CN(C3CCOCC3)C[C@H]2CN(C)C)cc1F | – | inconclusive: 20 µM [inhibitor, full curve, poor fit] | –
42 | CC(C)(O)c1cn(C2CCN(C(=O)c3ccccc3F)CC2)nn1 | inactive: -1.41% | – | –
43 | CN(C)C(=O)N1CCN(c2cc(Cl)ncn2)C(=O)C1 | inactive: -0.418% [at 172 µM] | – | –
44 | Cc1ccccc1S(=O)(=O)N1CCN(C2CCN(Cc3cccnc3)C2=O)CC1 (stereo unspecified) | – | inconclusive: 89.1 µM [inhibitor, single point] | –
45 | COCCCNC(=O)C1CCCN(Cc2ccncc2)CCC(=O)NCC1 (stereo unspecified) | inactive: -0.902% | – | –
46 | CC(C)NC(=O)c1cc(-c2ccsc2)c2nncn2n1 | inactive: -11.8% [at 172 µM] | – | –
